# Measured values reported in PubChem BioAssay (NCI).
# “And” between values parts separate entries of the source, which are not always exact repeats. Equal entries are not always repeated.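 These data come from cells grown in 96-well plates and exposed to compound for 48 hours at five concentrations. GI50 = concentration required for 50% inhibition of growth. TGI is the concentration that stops growth completely.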
# Test system: NCI-H322M lung
# Assay: NCI-60 cell line screen, 48 h
SMILES,TGI,GI50
O=C(NC(=S)NC(=O)c1cc(O)c(O)c(O)c1)c1cc(O)c(O)c(O)c1,49.4 µM,–
O=C1C(CN2CCOCC2)CCCC1CN1CCOCC1 (stereo not given),18.3 µM,–
CSC1NC(c2ccc(Cl)cc2)=C(C#N)C(=O)N1C1OCC(OC(C)=O)C(OC(C)=O)C1OC(C)=O (stereo not given),> 100 µM,–
Nc1ncnc2c1ncn2C1OC(CO)C(O)C1N (stereo not given),> 100 µM,–
Cc1cc(Cl)nc(N(CCCNc2ccnc3cc(Cl)ccc23)Cc2ccco2)n1,11.3 µM,2.63 µM
CCC(=O)c1c(C(F)(F)F)n([O-])c2cc(F)c(F)cc2[n+]1=O,3.2 µM,1.6 µM
N=c1c2c(=N)n3c(nc2nc2n1-c1ccccc1Sc1ccccc1-2)sc1cc(Cl)ccc13,12.2 µM,2.54 µM
NC(=S)c1c(N)n(C2OC(CO)C(O)C2O)c2ncnc(N)c12 (stereo not given),–,0.331 µM
O=S(=O)(c1cnccc1N1CCN(CCO)CC1)N1CCCC1,> 100 µM,–
O=C(Nc1nc2ccccc2s1)Nc1ccc([N+](=O)[O-])cc1Cl,10.3 µM,3.22 µM
O=C(CC(Cl)=C(Cl)Cl)c1cccc(Cl)c1Cl,> 100 µM,3.82 µM
CC1CC(=O)N(N(C)C)C(C#N)(C#N)C1(C#N)C#N (stereo not given),> 100 µM,–
CN(C)CCNC(=O)c1cccc2c1Oc1c(cccc1[N+](=O)[O-])O2,24.5 µM,–
O=C(CCc1ccccc1)On1c(-c2ccccc2)nc2ccccc2c1=S,> 100 µM,–
C[C@]12CCC3[C@@H](CC[C@@H]4c5nonc5CC[C@]34C)C1CC[C@@H]2O (stereo not given in full),> 100 µM,–
Cc1ccc(S(=O)(=O)N/N=C(/c2nc3ccc([N+](=O)[O-])cc3[nH]c2=O)C(O)c2ccc(C(O)/C(=N\NS(=O)(=O)c3ccc(C)cc3)c3nc4ccc([N+](=O)[O-])cc4[nH]c3=O)cc2)cc1 (stereo not given),> 100 µM,–
COc1cc2nc(-c3cccs3)[nH]c(=O)c2cc1OC,> 100 µM,–
C[C@H](C/C=C/C(C)(C)O)[C@H]1CC[C@@]2(C)[C@@H]3CC[C@H]4C(C)(C)[C@@H](O)CC[C@@]45C[C@@]35CC[C@]12C,22.7 µM,–
COc1ccccc1C[C@@H]1OC2(C=CC(=O)C=C2)O[C@H]1Cc1ccccc1OC,> 50 µM,–
Cn1cc(C2=C(c3cn(CCCCCSC(=N)N)c4ccccc34)C(=O)NC2=O)c2ccccc21,7.06 µM,3.61 µM
COC(OC)[C@@H]1OC[C@@H](O)[C@@H]1n1cnc2c(N)ncnc21,> 100 µM,–
COc1cc(-c2ccccc2N)c2cccnc2c1OC,20.9 µM,–
CCc1nc2ccc(NCCN(C)C)c3c(=O)c4ccccc4n1c23,4.75 µM,–
COc1cc2c3c(n(C)c(=O)c2cc1OC)-c1ccc(C#N)cc1C3=O,> 100 µM,> 100 µM
O=C(NNc1nc(-c2ccccc2)cs1)C(F)(F)F,> 100 µM,–

SMILES,TGI,GI50
N#C/C(=C/NC(=S)c1ccncc1)C(N)=O,> 100 µM,–
COc1ccc(/C=C/C2=NN(c3cccc(S(=O)(=O)O)c3)C3(C2)SCC(=O)N3c2nc3ccccc3s2)cc1 (stereo not given),> 100 µM,–
CN(C)c1cccc(NC2=NCCO2)c1,> 100 µM,–
COc1cc(CCc2ccc(N)cc2)cc(OC)c1OC,> 100 µM,–
COc1cccc(-c2cc(=O)c3ccccc3[nH]2)c1,> 100 µM,–
N#C[C@H](c1nc2ccccc2s1)c1nc2ccccc2nc1Cl,> 100 µM,–
O=C(NNc1ccccc1)/C(=C/c1ccc2c(c1)OCO2)NC(=O)c1ccccc1,> 100 µM,–
O=C1c2ccccc2C(=O)c2c(OCCOCCO)cccc21,> 100 µM,–
COc1nnc2ccc(N3CCC(c4ccc(OCCN5CCN(C)C(=O)[C@H]5C)cc4)CC3)nn12,> 100 µM,0.207 µM
CN(c1ccccc1)c1c(Cl)c(=O)oc2c1ccc1occc12,> 100 µM,–
Cc1ccc2c(c1)C(=O)C(C1OC(=O)c3ccccc31)C2 (stereo not given),> 100 µM,–
COC(=O)CSSCc1ccc([N+](=O)[O-])cc1,51.5 µM,–
CC(C)(C)C(C#N)(C#N)c1ccc(C(C#N)(C#N)C(C)(C)C)nn1,> 100 µM,–
Cn1c(N/N=C/c2ccccc2)nc(-c2ccc([N+](=O)[O-])cc2)c(C#N)c1=O,> 100 µM,–
CC(SC(=O)Nc1ccc(N=Nc2ccccc2)cc1)C(=O)O (stereo not given),> 100 µM,–
O=C(CCc1ccccc1)ON1C(=S)C(c2ccccc2)(c2ccccc2)N=C1Sc1ccccc1,> 100 µM,–
Cc1cc(N2CCN(C)CC2)n2nc(-c3ccc(Cl)cc3)nc2n1,> 100 µM,–
COc1cc2cc(Oc3ccc(NC(=O)Nc4ccc(Cl)c(Cl)c4)cc3)c(C)nc2cc1OC,60.3 µM,8.66 µM
CC1=C(Nc2ccc(N3CCN(C)CC3)cc2)C(=O)c2cncnc2C1=O,32.5 µM,16.1 µM
CN(Cc1cnc2nc(N)nc(N)c2n1)c1ccc(C(=O)NC(CCC(=O)O)C(=O)O)cc1Br (stereo not given),42 µM,< 0.01 µM
NS(=O)(=O)OCCCCCCCOS(N)(=O)=O,1990 µM,–
O=[N+]([O-])c1cccc(C2CC(c3ccccc3)=Nc3ccccc3S2)c1 (stereo not given),> 100 µM,34.8 µM
c1cc2c(cn1)Nc1ccncc1S2,> 100 µM,40.5 µM
Cc1c(/C=N/N(C)C)oc2c1cc(O)c1ncccc12,7.23 µM,–
NC(=O)NC1C(C(N)=O)N(Cc2ccccc2)C(=O)N1Cc1ccccc1 (stereo not given),> 100 µM,–

SMILES,TGI,GI50
COc1cc(-c2nn(-c3cccc(NC(=O)c4ccc(Cl)c(C(F)(F)F)c4)c3)cc2-c2ccncc2)ccc1Cl,> 32.5 µM,14 µM
O=C(Nc1nc2c(ncn2C2OC(CO)C(O)C2O)c(=O)[nH]1)c1ccccc1 (stereo not given),> 100 µM,–
CN(C)/N=C1\CC(c2ccccc2)C(C#N)(C#N)C1(C#N)C#N (stereo not given),53.5 µM,–
CCOC(=O)Oc1ccc2c(c1)c(=O)c1c(NCCN(CC)CC)ccc3nnn2c31,15.9 µM,–
c1ccc2c(c1)cc1n2CC2CN=NC12 (stereo not given),> 100 µM,–
Cc1nc2c(=S)n(C)ncc2[nH]1,> 100 µM,–
CC(=O)c1c(C)[nH]c(-c2nc3ccc(N4CCN(C)CC4)cc3[nH]2)c1-c1ccccc1,31.9 µM,2.26 µM
CC[C@H](C)[C@H](NC(=O)CN(C)C)C(=O)N(C)[C@H](C[C@@H](OC(C)=O)c1nc(C(=O)NC23CC(C(=O)OC)(C2)C3)cs1)C(C)C,> 25 µM,1.02 µM
CN(C)c1cc[n+](-c2nc(/N=C(\[O-])C(F)(F)F)nc3c2ncn3C2CC(O)C(CO)O2)cc1 (stereo not given),> 100 µM,–
Cc1cc(=O)[nH]c(NN2C(Cl)C(=O)C2c2cccc(Cl)c2)n1 (stereo not given),> 100 µM,–
O=C(OCC(Cl)(Cl)Cl)O[C@@H]1CCCC1(c1ccccc1)c1ccccc1,> 100 µM,–
O=[N+]([O-])c1ccc(O)c(/C=N/NC(=S)N2CCCCC2)c1,> 62.3 µM,–
CC(=O)OC1COC(n2c(=S)n(-c3ccccc3)c(=O)c3ccccc32)C(OC(C)=O)C1OC(C)=O (stereo not given),> 100 µM,–
CN(C)C(=S)SCC(=O)Nc1ccccc1,> 100 µM,–
CCOC(=O)c1cnc2c(C)cccc2c1Nc1ccc(C(C)=O)cc1,> 100 µM,30.8 µM
Cn1nc(-c2ccccc2)c2c(/C=C/c3ccccc3)onc2c1=O,> 100 µM,–
O=C1Nc2ccccc2Nc2ccncc21,> 100 µM,–
COC(=O)C=Cc1ccc2nncnc2c1 (mixture of isomers),> 100 µM,–
C(=C\N1CCCCC1)/c1nnnn1-c1ccccc1,> 100 µM,–
CCOC(=O)Cc1nc2c(N)ncnc2n1C1OC(COC(C)=O)C(OC(C)=O)C1OC(C)=O (stereo not given),> 100 µM,–
Cc1cc([N+](=O)[O-])c2ccccc2[n+]1[O-],1.72 µM and 2.6 µM,0.279 µM and 0.26 µM
C=CCc1cc(OC)c2c(c1)C(OC)CC(c1ccc(OC)c(OC)c1)O2 (stereo not given),> 100 µM,–
COc1cc2nc3cc([N+](=O)[O-])ccc3c(NCCNCC(C)(C)O)c2cc1OC,3.97 µM,0.731 µM
C#CCOc1ccc2ncnc(Nc3ccc(NC(=O)C=C)cc3)c2c1,> 100 µM,> 100 µM
CNc1ncc(-c2nnnn2-c2ccccc2)c(CN(C)C)n1,> 100 µM,–
